The supplement of paper PMC10037445
± gives the standard deviation of the averaged measurements. In all, about 2,900 compounds were measured (“NF-kB SEAP reporter activity, fold change vs agonist alone”: median about 0.99, highest 2% from about 2.6 on). This is one part of the list.

Key:
[1] = test system: RAW-Dual; assay: NF-kB SEAP reporter activity, fold change vs agonist alone; cytotoxicity flag (confluency mask): not cytotoxic; higher = enhanced NF-kB activity
Procedure, shortened: (§1)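 RAW-Dual macrophages (50,000 cells/well in DMEM, 384-well plates) received 50 nL of library stock by pin tool, then a PRR agonist 1 h later, and were kept at 37 °C, 5% CO2. After 20 hours, supernatant was read for IRF by QuantiLuc luminescence and for NF-κB by QuantiBlue absorbance at 620 nm. Reporter activity is fold change over agonist-alone wells. Cytotoxic wells had IncuCyte confluency below 70% of agonist controls in both mask sets.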

[2] = test system: RAW-Dual; assay: NF-kB SEAP reporter activity, fold change vs agonist alone; higher = enhanced NF-kB activity
Procedure, shortened: as §1

[3] = test system: RAW-Dual; assay: NF-kB SEAP reporter activity, fold change vs agonist alone; cytotoxicity flag (confluency mask): cytotoxic (confluency <70% of control); higher = enhanced NF-kB activity
Procedure, shortened: as §1

[4] = agonist: ODN 1826 (TLR9) 0.5 ug/mL
[5] = agonist: Pam2CSK4 (TLR2/6) 0.1 ug/mL
[6] = agonist: Pam3CSK4 (TLR2/1) 0.1 ug/mL
[7] = library stock concentration (final ~1000-fold dilution): 10 mM, cytotoxicity flag (confluency mask): not cytotoxic, agonist: Imiquimod (TLR7) […]
[8] = library stock concentration (final ~1000-fold dilution): 10 mM, cytotoxicity flag (confluency mask): not cytotoxic, agonist: MPLA (TLR4) […]
[9] = library stock concentration (final ~1000-fold dilution): 10 mM, cytotoxicity flag (confluency mask): cytotoxic (confluency <70% of control), agonist: Imiquimod (TLR7) […]
[10] = library stock concentration (final ~1000-fold dilution): 10 mM, cytotoxicity flag (confluency mask): cytotoxic (confluency <70% of control), agonist: MPLA (TLR4) […]

c1ccc(-c2n[nH]cc2-c2ccnc3ccccc23)nc1 (library stock concentration (final ~1000-fold dilution): 2 mM)
NF-kB SEAP reporter activity ([1]; agonist: LPS (TLR4) 0.1 ug/mL): 2.19 | NF-kB SEAP reporter activity [1, 4]: 1.01 | NF-kB SEAP reporter activity [1, 5]: 0.992 | NF-kB SEAP reporter activity [1, 6]: 0.919

c1ccc(-c2n[nH]cc2-c2ccnc3ccccc23)nc1
NF-kB SEAP reporter activity ([2]; library stock concentration (final ~1000-fold dilution): 2 mM, cytotoxicity flag (confluency mask): not cytotoxic, agonist: Imiquimod (TLR7) […]): 0.961 | NF-kB SEAP reporter activity ([2]; library stock concentration (final ~1000-fold dilution): 2 mM, cytotoxicity flag (confluency mask): not cytotoxic, agonist: MPLA (TLR4) […]): 1.15

CC(=O)Nc1ccc(C(=O)Nc2ccccc2N)cc1 (library stock concentration (final ~1000-fold dilution): 10 mM)
NF-kB SEAP reporter activity ([1]; agonist: LPS (TLR4) 0.1 ug/mL): 2.28 | NF-kB SEAP reporter activity [1, 4]: 2.86 | NF-kB SEAP reporter activity [1, 5]: 0.724 | NF-kB SEAP reporter activity [1, 6]: 0.832

CC(=O)Nc1ccc(C(=O)Nc2ccccc2N)cc1
NF-kB SEAP reporter activity [2, 7]: 2.21 | NF-kB SEAP reporter activity [2, 8]: 1.74

COc1cc2c(Nc3ccc(NC(=O)c4ccccc4)cc3)ncnc2cc1OCCCN1CCOCC1 (library stock concentration (final ~1000-fold dilution): 10 mM)
NF-kB SEAP reporter activity ([1]; agonist: LPS (TLR4) 0.1 ug/mL): 0.931 | NF-kB SEAP reporter activity [1, 4]: 0.193 | NF-kB SEAP reporter activity [1, 5]: 1.23 | NF-kB SEAP reporter activity [1, 6]: 1.27

COc1cc2c(Nc3ccc(NC(=O)c4ccccc4)cc3)ncnc2cc1OCCCN1CCOCC1
NF-kB SEAP reporter activity [2, 7]: 1.03 | NF-kB SEAP reporter activity [2, 8]: 0.862

CC(C)(C)C(O)/C(=C\c1ccc(Cl)cc1)n1cncn1 (stereo unspecified)
NF-kB SEAP reporter activity [2, 7]: 1.32 | NF-kB SEAP reporter activity [2, 8]: 0.988

CC(C)(C)C(O)/C(=C\c1ccc(Cl)cc1)n1cncn1 (stereo unspecified) (library stock concentration (final ~1000-fold dilution): 10 mM)
NF-kB SEAP reporter activity ([1]; agonist: LPS (TLR4) 0.1 ug/mL): 1.52 | NF-kB SEAP reporter activity [1, 4]: 1.05 | NF-kB SEAP reporter activity [1, 5]: 1.2 | NF-kB SEAP reporter activity [1, 6]: 1.39

CCn1c2ccccc2c2cc(CNCc3ccccc3OC)ccc21.Cl
NF-kB SEAP reporter activity [2, 9]: 1.22 | NF-kB SEAP reporter activity [2, 10]: 1.37

CCn1c2ccccc2c2cc(CNCc3ccccc3OC)ccc21.Cl (library stock concentration (final ~1000-fold dilution): 10 mM)
NF-kB SEAP reporter activity ([3]; agonist: LPS (TLR4) 0.1 ug/mL): 1.06 | NF-kB SEAP reporter activity [3, 4]: 0.394 | NF-kB SEAP reporter activity [3, 5]: 0.659 | NF-kB SEAP reporter activity [3, 6]: 0.641

Cl.O=c1[nH]c(C2CCCN2)nc2c1oc1ccc(Cl)cc12 (stereo unspecified)
NF-kB SEAP reporter activity ([2]; library stock concentration (final ~1000-fold dilution): 10 mM water, cytotoxicity flag (confluency mask): not cytotoxic, agonist: Imiquimod (TLR7) […]): 0.732 | NF-kB SEAP reporter activity ([2]; library stock concentration (final ~1000-fold dilution): 10 mM water, cytotoxicity flag (confluency mask): not cytotoxic, agonist: MPLA (TLR4) […]): 1.18

Cl.O=c1[nH]c(C2CCCN2)nc2c1oc1ccc(Cl)cc12 (stereo unspecified) (library stock concentration (final ~1000-fold dilution): 10 mM water)
NF-kB SEAP reporter activity ([1]; agonist: LPS (TLR4) 0.1 ug/mL): 0.991 | NF-kB SEAP reporter activity [1, 4]: 1.08 | NF-kB SEAP reporter activity [1, 5]: 0.849 | NF-kB SEAP reporter activity [1, 6]: 1.13

O=C(/C=C/c1ccc(O)c(O)c1)OC(Cc1ccc(O)c(O)c1)C(=O)O (stereo unspecified)
NF-kB SEAP reporter activity [2, 7]: 0.709 ± 0.063 | NF-kB SEAP reporter activity [2, 8]: 1.15 ± 0.32

O=C(/C=C/c1ccc(O)c(O)c1)OC(Cc1ccc(O)c(O)c1)C(=O)O (stereo unspecified) (library stock concentration (final ~1000-fold dilution): 10 mM)
NF-kB SEAP reporter activity ([1]; agonist: LPS (TLR4) 0.1 ug/mL): 1.14 ± 0.28 | NF-kB SEAP reporter activity [1, 4]: 0.7158 ± 0.0053 | NF-kB SEAP reporter activity [1, 5]: 1.04 ± 0.16 | NF-kB SEAP reporter activity [1, 6]: 0.763 ± 0.084

O=C(Nc1ccccc1)Nc1ccc(-c2ccc(C(=O)C3CCCC3C(=O)O)cc2)cc1 (stereo unspecified) (library stock concentration (final ~1000-fold dilution): 10 mM)
NF-kB SEAP reporter activity ([1]; agonist: LPS (TLR4) 0.1 ug/mL): 1.38 | NF-kB SEAP reporter activity [1, 4]: 1.09 | NF-kB SEAP reporter activity [1, 5]: 1.02 | NF-kB SEAP reporter activity [1, 6]: 0.971

O=C(Nc1ccccc1)Nc1ccc(-c2ccc(C(=O)C3CCCC3C(=O)O)cc2)cc1 (stereo unspecified)
NF-kB SEAP reporter activity [2, 7]: 0.86 | NF-kB SEAP reporter activity [2, 8]: 0.711

COc1cc2c(NC3CCN(C(C)C)CC3)nc(C3CCCCC3)nc2cc1OCCCN1CCCC1
NF-kB SEAP reporter activity [2, 9]: 0.228 | NF-kB SEAP reporter activity [2, 10]: 0.382

COc1cc2c(NC3CCN(C(C)C)CC3)nc(C3CCCCC3)nc2cc1OCCCN1CCCC1 (library stock concentration (final ~1000-fold dilution): 10 mM)
NF-kB SEAP reporter activity ([3]; agonist: LPS (TLR4) 0.1 ug/mL): 0.43 | NF-kB SEAP reporter activity [3, 4]: 0.278 | NF-kB SEAP reporter activity [3, 5]: 0.0813 | NF-kB SEAP reporter activity [3, 6]: 0.253

O=c1[nH]nc2c3c(cccc13)N=C(CN1Cc3ccccc3C1)N2
NF-kB SEAP reporter activity [2, 7]: 0.878 | NF-kB SEAP reporter activity [2, 8]: 1.08

O=c1[nH]nc2c3c(cccc13)N=C(CN1Cc3ccccc3C1)N2 (library stock concentration (final ~1000-fold dilution): 10 mM)
NF-kB SEAP reporter activity ([1]; agonist: LPS (TLR4) 0.1 ug/mL): 1.02 | NF-kB SEAP reporter activity [1, 4]: 1.13 | NF-kB SEAP reporter activity [1, 5]: 0.792 | NF-kB SEAP reporter activity [1, 6]: 1.1

C#Cc1cccc(Nc2ncnc3cc(OC)c(OCCCCCCC(=O)NO)cc23)c1
NF-kB SEAP reporter activity [2, 9]: 1.4 | NF-kB SEAP reporter activity [2, 10]: 1.87

C#Cc1cccc(Nc2ncnc3cc(OC)c(OCCCCCCC(=O)NO)cc23)c1 (library stock concentration (final ~1000-fold dilution): 10 mM)
NF-kB SEAP reporter activity ([3]; agonist: LPS (TLR4) 0.1 ug/mL): 7.09 | NF-kB SEAP reporter activity [3, 4]: 1.67 | NF-kB SEAP reporter activity [3, 5]: 0.682 | NF-kB SEAP reporter activity [3, 6]: 1.41

O=S(=O)(c1ccc2c(c1)C(=NO)c1cc(S(=O)(=O)N3CCCCC3)ccc1-2)N1CCCCC1
NF-kB SEAP reporter activity [2, 7]: 1.43 | NF-kB SEAP reporter activity [2, 8]: 1.9

O=S(=O)(c1ccc2c(c1)C(=NO)c1cc(S(=O)(=O)N3CCCCC3)ccc1-2)N1CCCCC1 (library stock concentration (final ~1000-fold dilution): 10 mM)
NF-kB SEAP reporter activity ([1]; agonist: LPS (TLR4) 0.1 ug/mL): 1.12 | NF-kB SEAP reporter activity [1, 4]: 1.14 | NF-kB SEAP reporter activity [1, 5]: 0.268 | NF-kB SEAP reporter activity [1, 6]: 0.797

CCn1c2ccccc2c2cc(-n3nncc3-c3ccccc3)ccc21
NF-kB SEAP reporter activity [2, 7]: 1.66 | NF-kB SEAP reporter activity [2, 8]: 2.14

CCn1c2ccccc2c2cc(-n3nncc3-c3ccccc3)ccc21 (library stock concentration (final ~1000-fold dilution): 10 mM)
NF-kB SEAP reporter activity ([1]; agonist: LPS (TLR4) 0.1 ug/mL): 3.15 | NF-kB SEAP reporter activity [1, 4]: 1.82 | NF-kB SEAP reporter activity [1, 5]: 1.81 | NF-kB SEAP reporter activity [1, 6]: 2.79

COc1cccc2c1c(O)c(C(=O)N(C)c1ccc(C(F)(F)F)cc1)c(=O)n2C (library stock concentration (final ~1000-fold dilution): 10 mM)
NF-kB SEAP reporter activity ([1]; agonist: LPS (TLR4) 0.1 ug/mL): 1.07 | NF-kB SEAP reporter activity [1, 4]: 1.03 | NF-kB SEAP reporter activity [1, 5]: 1.16 | NF-kB SEAP reporter activity [1, 6]: 0.893

COc1cccc2c1c(O)c(C(=O)N(C)c1ccc(C(F)(F)F)cc1)c(=O)n2C
NF-kB SEAP reporter activity [2, 7]: 0.954 | NF-kB SEAP reporter activity [2, 8]: 1.07

CC(C)c1nc(N(C)S(C)(=O)=O)nc(-c2ccc(F)cc2)c1C=CC(O)CC(O)CC(=O)O (stereo unspecified) (library stock concentration (final ~1000-fold dilution): 10 mM)
NF-kB SEAP reporter activity ([1]; agonist: LPS (TLR4) 0.1 ug/mL): 1.43 | NF-kB SEAP reporter activity [1, 4]: 1.24 | NF-kB SEAP reporter activity [1, 5]: 1.01 | NF-kB SEAP reporter activity [1, 6]: 1.2

CC(C)c1nc(N(C)S(C)(=O)=O)nc(-c2ccc(F)cc2)c1C=CC(O)CC(O)CC(=O)O (stereo unspecified)
NF-kB SEAP reporter activity [2, 7]: 0.909 | NF-kB SEAP reporter activity [2, 8]: 1.05

Cl.NCCNC(=O)c1ccc(Cl)cn1
NF-kB SEAP reporter activity [2, 7]: 0.893 | NF-kB SEAP reporter activity [2, 8]: 1.09

Cl.NCCNC(=O)c1ccc(Cl)cn1 (library stock concentration (final ~1000-fold dilution): 10 mM)
NF-kB SEAP reporter activity ([1]; agonist: LPS (TLR4) 0.1 ug/mL): 0.986 | NF-kB SEAP reporter activity [1, 4]: 0.925 | NF-kB SEAP reporter activity [1, 5]: 1.04 | NF-kB SEAP reporter activity [1, 6]: 1.05

Cc1cc(-c2ccc(N=Nc3ccc4c(S(=O)(=O)O)cc(S(=O)(=O)O)c(N)c4c3O)c(C)c2)ccc1N=Nc1ccc2c(S(=O)(=O)O)cc(S(=O)(=O)O)c(N)c2c1O (library stock concentration (final ~1000-fold dilution): 10 mM)
NF-kB SEAP reporter activity ([1]; agonist: LPS (TLR4) 0.1 ug/mL): 1.63 | NF-kB SEAP reporter activity [1, 4]: 0.873 | NF-kB SEAP reporter activity [1, 5]: 1.45 | NF-kB SEAP reporter activity [1, 6]: 0.319

Cc1cc(-c2ccc(N=Nc3ccc4c(S(=O)(=O)O)cc(S(=O)(=O)O)c(N)c4c3O)c(C)c2)ccc1N=Nc1ccc2c(S(=O)(=O)O)cc(S(=O)(=O)O)c(N)c2c1O
NF-kB SEAP reporter activity [2, 8]: 1.21
